# Assay results as given in PubChem BioAssay (NCI).
# Some compounds were tested as several samples or in several runs, with calls that do not always agree.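 Method: cells in 96-well plates; compound added at one concentration; 48 h incubation; percent growth measured; values under 10 scored active.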 Certain results were filed several times, with different values. This list holds those alone. There may be further records. This drug was run again and again over the years, at its own concentration, as given; each value is one run. Marks such as (2×) give the number of equal values in this list.
# Test system: SK-MEL-2 melanoma
# Experiment: NCI-60 one-dose screen, 48 h (100 = growth as untreated, 0 = no growth, -100 = all killed)
structure (smiles),measurement,setting,value
COc1cccc2c1C(=O)c1c(O)c3c(c(O)c1C2=O)C[C@@](O)(C(=O)CO)C[C@@H]3OC1CC(N)C(O)C(C)O1 (stereo not given in full),growth,"0.25 µM, runs of 2009","inactive: 27.5, 39.3 (2×), 14, 34.4, 86.3, 95.8, 105, 80.5, 64.5, 59.9, 69.1, 83.8, 44.2, 50.2, 61.6, 49.3 (2×), 65, 61.7, 67.9, 67.2, 61.1, 44.1, 46.5, 48.2, 40.6 (2×), 30.6, 55.4, 49.1, 68.8, 36.8, 45.5, 90.3, 62.8, 74.3, 83.7, 62, 47.5, 42.2 (2×), 44.9, 74.2, 28.2, 57.4, 66.7, 23.5, 46.4, 32.6, 28.9, 51.7 (2×), 50.4, 19.8, 52.9, 23.2, 50.5, 64.1, 85.6, 47.8 (2×), 72.5, 72.4, 69.9, 45, 41.5, 42.8, 28.3, 56.3, 41.6% and active: 3.22%"
same,growth,"0.25 µM, runs of 2010","inactive: 48.7, 43.1, 46.9, 49.1, 40, 74, 50.3, 63.3, 60.4, 43.9, 47.8, 50.5, 43.6, 37.4, 38.9, 61.1, 37.2, 37.6, 24.5, 38.6 (2×), 47.2 (2×), 50.6, 37.1, 62.6, 65.4, 57.2, 32.7, 53, 55.7, 77.4, 44, 39, 40.3, 48.3, 39.7, 41.9, 56.9, 63.6, 112, 45.6, 72.2, 87.6, 67.3, 55.5, 63.1, 45.4, 62.7, 60% and active: 7.62%"
same,growth,"0.25 µM, runs of 2011","inactive: 88.7, 63.6, 57.7, 52.7, 63, 71.5, 83.1, 66.2, 61.4, 31.2, 87.3, 68.9 (2×), 47.3, 96.9, 104, 67.1, 89.6 (2×), 88.6 (2×), 95.3, 86.8, 83, 74.2, 84.4, 86, 92.5, 62.5 (2×), 47.4, 84, 42.4, 53.6, 75.2, 56.2, 47.5, 40.7, 68.5, 59.2, 47.8, 53.3, 25.7, 51.8, 56, 60.3, 38.5, 85.2, 80.9, 60.6, 54.7, 72.1, 84.7, 73.6, 72.6, 69.5%"
same,growth,"0.25 µM, runs of 2012","inactive: 67.2 (2×), 38.9, 60.6, 66.1, 65.8, 49.8, 61.6, 73.9, 71.8, 86.8, 37.3, 39.1, 54.1, 66, 44, 57.4, 43, 53.3, 29.2, 45, 44.7, 33, 49, 64.1, 80.9, 82.1, 76.5, 59.3, 69, 76, 87.5, 73, 63.3, 87.9, 73.5, 52.3 (2×), 88.9, 61.2, 76.2, 71.5, 95.4, 87.2, 63.2, 98.6 (2×), 106, 108, 110, 122, 115, 95.1, 119, 92.8, 45.5, 33.2, 76.9, 68, 52.2, 83.6, 83.8, 55, 38.7, 83.7, 32.2, 70.6%"
same,growth,"0.25 µM, runs of 2013","inactive: 49.2, 96.8, 70.7, 57.4 (2×), 62.7, 77.6, 80.1, 79.7, 80.4 (2×), 87.3, 94.6, 86.6, 95.3, 82.4 (2×), 85.7, 81.1, 88.7, 68.6, 77, 69.2, 87.9 (2×), 93.1, 87.4, 79.8, 86.1, 92.4, 82.1, 95, 80.7, 78, 86.5, 89.2, 79.4, 81.8, 89.5, 62.2, 76, 75.9, 76.3, 108, 105, 110, 86.3, 77.2, 88.8, 73, 63.8, 63.2, 71.1, 56.8, 61.5, 62.4, 54, 81.7, 62.5, 84.3, 85, 91.4, 46.5, 68.3, 65.2, 77.3%"
same,growth,"0.25 µM, runs of 2014","inactive: 52 (2×), 64 (4×), 48.6, 36.2, 61.5 (3×), 63.5, 51, 57.7, 60.9 (2×), 67.2, 68, 56.8, 81.1, 67, 63.9, 58.2, 77.6, 82, 68.1, 71.5 (3×), 78.1 (2×), 77.3, 76.6, 73.5, 82.5, 79.5, 65.8, 64.7, 64.3, 67.3, 75.2, 73, 65.7, 75.1, 70.7, 63.3 (2×), 62.8, 72.3, 67.1, 58.3, 60.1, 53, 72, 61.8, 54, 42.3, 39.7, 64.5, 43.9, 52.2, 64.6, 68.8, 48, 48.5, 59.4, 79.9, 61.9, 69.5, 61.6, 70.9, 69, 76.5, 49.4, 86.3, 58.7, 65.4, 73.1, 52.1, 68.3%"
same,growth,"0.25 µM, runs of 2015","inactive: 77.3, 67.3, 37.6, 98.1, 50.8, 64.3, 80, 71.4, 52.7 (3×), 54.1, 57.6 (2×), 67.7, 64.9, 74.7, 80.8, 75.4, 42.8, 41.7, 52.4, 61.2, 77.5, 59.6, 53.1, 62.5, 68.1, 78, 61.4, 37, 14.2, 67.9, 52.9, 54.5, 42.2, 40.2, 45.6, 44.7, 58.2, 48 (2×), 50.7, 46.3, 46.8, 50.1, 56.5 (2×), 62.7, 59.8, 62.1, 42.3, 60.3 (2×), 64.6, 79.5, 66.4, 78.2, 63.6, 86.9, 76.3, 79, 71.3, 48.3, 56.8, 69.7, 83.5, 67.6, 55.8, 77.6, 51.4, 83.8, 75.8, 79.6, 74.5, 65.6, 60.8, 50.4, 62, 46, 60.4, 67.1, 53.8, 50.5, 51, 40.8%"
same,growth,"0.25 µM, runs of 2016","inactive: 58.9, 64.8 (3×), 65.8, 59.7, 57.5, 53.9, 66.4 (2×), 61.8 (3×), 45.1, 55.8, 51, 58.2, 44.5 (2×), 40, 63.8, 46, 46.4 (2×), 56.2, 54.3, 43, 25.5, 47.6 (2×), 46.8, 37.2, 57 (2×), 29.6, 57.9 (2×), 54.9, 39.3, 50.2, 49.2, 63.5, 47.3, 54.8 (2×), 59.9, 53.8, 49.1, 55.3, 60.5, 61.5, 58.3, 58.4, 50.7, 62.8, 90, 85.8, 82.3, 74.8, 66.3, 59, 64.7, 62.7, 53, 58.5, 59.6, 60.6, 76.2, 67.2, 79.6, 51.4, 57.6, 55.5, 64, 62.2, 70.7, 69.7, 58.7, 60.7, 47.1, 40.4, 48.3, 50.4, 66.7, 51.2%"
same,growth,"0.25 µM, runs of 2017","inactive: 64.9, 61.9, 62.8 (2×), 60.6, 49.9, 54, 42.3, 50.7 (2×), 56.4, 59.4 (2×), 47.2, 51.2, 56.1 (2×), 55.8, 48.1, 50.8, 48.5, 50.4 (2×), 46.3, 46.9, 52.3, 47.6 (2×), 65.2, 47.8 (2×), 52.9, 57.2 (2×), 51.7 (2×), 61.8, 39.7, 58.6, 64.1, 54.3, 44.7, 52 (3×), 52.4, 63.1, 49.2, 60.8, 59.3, 45.9, 60.1, 67.4, 58.1, 59.2, 68.3, 60.4, 50.6, 48.6, 52.7, 57, 61.2, 58.8, 53.6, 50.2, 57.4, 61.4, 61, 62.7, 57.5 (2×), 59.9, 58.3, 57.9, 55, 49.7, 57.3, 52.2, 51.6, 49, 56, 58.5, 61.1%"
same,growth,"0.25 µM, runs of 2018","inactive: 58.1, 61.3, 58.9, 56.7, 62.2 (2×), 64 (2×), 58.3, 60.6, 60.2, 55, 66.9, 69, 67.3, 63.1, 58.5, 42.8, 82.4 (2×), 63.9, 67.1, 69.4, 67.8, 62.7, 65.4, 68.1, 63.3, 73.2, 78.9, 58.6, 60.8, 72.6, 65.3, 60.3, 45.6, 61.2, 70.2, 81.6, 84.4, 72.3, 73, 66.7, 79.4, 73.5, 75.8, 73.9, 67.2, 70.7, 61.9, 70.6, 66.3, 56.6, 44.6, 59.7, 41.3, 28.5%"
same,growth,"0.25 µM, runs of 2019","inactive: 47.5, 32.9, 42, 43.6, 51, 54.8, 51.2, 57.8, 50.4, 47.4, 61, 50.6, 62.3, 61.5, 59, 62.5, 59.8, 47.6 (2×), 67.9, 60.6, 67.8, 56.5, 55.3, 63.9, 68.4, 63.4 (2×), 54.1 (2×), 67.2, 55, 61.9, 64.6, 67.3, 63, 64.1, 52.7, 65, 73.1, 66, 58.5, 68.6, 48.5, 70.1, 70.2, 48.7, 55.8, 48.6, 58.9, 56%"
same,growth,"0.25 µM, runs of 2020","inactive: 51.3, 55.6, 62.8, 58.8, 67.8, 67.6, 60.9, 72.1, 72.5, 83.1, 67.4, 66.4, 62, 68.1, 88.2, 66.7, 59.9, 83.6, 62.7, 70.3, 76.2, 62.2, 47.7, 50.1, 49.7%"
same,growth,"0.25 µM, runs of 2021","inactive: 82.5, 97.4, 88.2, 93.8, 83.3, 71.6, 82.4, 86.8, 76.9, 81.6, 65.5, 81.8, 71.5 (3×), 81, 74.7, 78.9, 74.5, 72.2, 95.8, 62.7, 53.8, 61.3, 62.8, 59.4, 56.2, 73.3, 87.7, 81.9, 68.5, 62, 67.2, 66.3, 70.8, 61.2, 95.6, 78.1, 99.7, 67.8, 81.1, 76.7, 44.1, 78.7, 122, 61, 54.8, 81.4, 73.4, 82%"
same,growth,"0.25 µM, runs of 2022","active: -35.3%, -10.7%, -52.2% and inactive: 50.8, 41, 33.1, 19.4, 51.5, 54.2, 78.3, 51.3, 79, 89.3, 75.3, 74.9, 61.2, 60.3, 56.5, 106, 95.2, 123, 127, 132, 94, 88.1, 83.9, 69%"
same,growth,"25 µM, runs of 1991","active: -83.9, -82.3, -93.6, -91.9, -99, -94.8, -85.5, -74.1, -94, -99.5, -97.1, -56.4, -88.8, -88.5, -92.1, -90.8, -94.1, -96, -96.5%"
